Values joined by “and” are separate entries in the source; they are usually repeats but may differ in a detail not shown here. Equal values may be shown once. The shares of active, inactive and inconclusive entries below differ from those in the screen. For some of these results: Potencies beside an inconclusive call are fits to weak or partial responses and may not hold up. Active and inactive are the calls of the source. Unless noted, calls follow the shape of the dose curve; as a rule, active = well fitted curve in the direction sought with a large enough effect in the repeat runs; inconclusive = weak or mixed curves; inactive = no such curve, though single readings can be large; an effect the other way counts as inactive or inconclusive.
Columns and labels:
[1] = qHTS assay to identify small molecule antagonists of the estrogen related receptor (ERR) signaling pathway from Tox21 library (AID 1224848); also: nearly all actives have a fitted effect of over 50% in size; also: potency is read from the fitted curve at half-maximal effect
In short: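 Tox21 10K compounds in DMSO tested for ERR pathway antagonism in NTP's ERR cell line; 18 h, 37 C exposure; ONE-Glo luminescence.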

[2] = qHTS RealTime-Glo MT Cell Viability Assay in HEK293 cells - 32 hour (AID 1224868); also: potency is read from the fitted curve at half-maximal effect; nearly all actives have a fitted effect of over 50% in size
In short: (§1)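 Assay medium contained NanoLuc luciferase plus cell-permeant prosubstrate, added with HEK293 cells at 600 cells/well. After 5 h at 37 C/5% CO2 compounds were added; plates stayed at 37 C for 40 h with serial luminescence reads.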

[3] = A CellTox Green Cytotoxicity Assay to monitor cytotoxicity in HEK293 cells - 40 hour (AID 1224871); also: nearly all actives have a fitted effect of over 45% in size; also: potency is read from the fitted curve at half-maximal effect
In short: (§2)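 Real-time, in one plate: 600 HEK293 cells/well with dead-cell DNA dye, pinned compound after 5 h, 37 C incubation over 40 h; viable cells give no appreciable fluorescence.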

[4] = qHTS RealTime-Glo MT Cell Viability Assay in HEK293 cells - 16 hour (AID 1224872); also: nearly all actives have a fitted effect of over 50% in size; also: potency is read from the fitted curve at half-maximal effect
In short: as §1

[5] = qHTS RealTime-Glo MT Cell Viability Assay in HEK293 cells - 40 hour (AID 1224874); settings: RealTime-Glo luminescence; max response: active compounds read low; also: potency is read from the fitted curve at half-maximal effect; nearly all actives have a fitted effect of over 50% in size
In short: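 Kinetic, non-lysing viability readout. Seed HEK293 (600/well) with reagent, incubate 5 h at 37 C/5% CO2, pin 23 nL compound in DMSO, incubate at 37 C, read luminescence at 0, 8, 16, 24, 32, 40 h.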

[6] = A CellTox Green Cytotoxicity Assay to monitor cytotoxicity in HepG2 cells - 40 hour (AID 1224879); also: nearly all actives have a fitted effect of over 40% in size; also: potency is read from the fitted curve at half-maximal effect
In short: (§3)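 Cytotoxicity was tracked as dead-cell DNA fluorescence in HepG2 cells treated with test compounds at 37 C; each time-point value comes from one kinetic series spanning 0, 8, 16, 24, 32 and 40 h.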

[7] = qHTS assay to identify small molecule agonists of the estrogen related receptor (ERR) signaling pathway from Tox21 library (AID 1224849; calls by dose curve; also: % is scaled to controls: 0 for no effect and ±100 for the full control effect; nearly all actives have a fitted effect of over 15% in size); settings: ERR reporter cell line, ONE-Glo luciferase, 18 h; at 92.4 µM (top of the series) unless noted
In short: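 Luciferase activity in ERR pathway reporter cells served as the agonist readout; exposure lasted 18 h at 37 C, with ONE-Glo detection after 30 min at room temperature.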

[8] = qHTS RealTime-Glo MT Cell Viability Assay in HepG2 cells - 40 hour (AID 1224870); also: nearly all actives have a fitted effect of over 50% in size; also: potency is read from the fitted curve at half-maximal effect
In short: (§4)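 HepG2 cells mixed with RealTime-Glo MT reagents (NanoLuc plus cell-permeant prosubstrate) were seeded at 600 cells/well, incubated 5 h at 37 C/5% CO2, then pinned with compounds in DMSO; nonlytic luminescence tracked viability during 40 h treatment.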

[9] = A CellTox Green Cytotoxicity Assay to monitor cytotoxicity in HepG2 cells - 24 hour (AID 1224878); also: potency is read from the fitted curve at half-maximal effect; nearly all actives have a fitted effect of over 45% in size
In short: as §3

[10] = A CellTox Green Cytotoxicity Assay to monitor cytotoxicity in HEK293 cells - 32 hour (AID 1224881); also: nearly all actives have a fitted effect of over 40% in size; also: potency is read from the fitted curve at half-maximal effect
In short: as §2

[11] = qHTS assay to identify small molecule agonists of H2AX - cell viability counter screen (AID 1224847; calls by dose curve; also: nearly all actives have a fitted effect of over 30% in size; also: potency is read from the fitted curve at half-maximal effect)
In short: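 Compounds tested at 15 concentrations were incubated 3 hr at 37C with wild-type CHO-K1 cells; cellular ATP-based luminescence (CellTiter-Glo) indicated viability.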

[12] = A CellTox Green Cytotoxicity Assay to monitor cytotoxicity in HEK293 cells - 0 hour (AID 1224869)
In short: as §2

[13] = A CellTox Green Cytotoxicity Assay to monitor cytotoxicity in HEK293 cells - 24 hour (AID 1224875); also: potency is read from the fitted curve at half-maximal effect; nearly all actives have a fitted effect of over 45% in size
In short: as §2

[14] = A CellTox Green Cytotoxicity Assay to monitor cytotoxicity in HepG2 cells - 16 hour (AID 1224876); also: % is scaled to controls: 0 for no effect and ±100 for the full control effect; nearly all actives have a fitted effect of over 45% in size
In short: as §3

[15] = qHTS RealTime-Glo MT Cell Viability Assay in HepG2 cells - 8 hour (AID 1224873); also: % is scaled to controls: 0 for no effect and ±100 for the full control effect; nearly all actives have a fitted effect of over 55% in size
In short: as §4

[16] = A CellTox Green Cytotoxicity Assay to monitor cytotoxicity in HepG2 cells - 0 hour (AID 1224882); also: potency is read from the fitted curve at half-maximal effect; nearly all actives have a fitted effect of over 35% in size
In short: as §3
Tags tell the direction and shape of the fitted curve.

Which results are given for `O[Si](c1ccccc1)(c1ccccc1)c1ccccc1`?
Potency [1]: inconclusive: 68.6 µM [inhibitor, single point]; Potency [2]: active: 38.9 µM; Potency [3]: inactive; Potency [4]: inconclusive: 38.9 µM [cytotoxic, partial curve]; Potency [5]: active: 38.9 µM; Potency [6]: inactive

For `O=C(O)c1cc(-c2ccccc2)nc2ccccc12`, which Potency [1] is on record?
Its Potency is inconclusive: 31 µM [inhibitor, full curve, poor fit].

And the activity change, positive = activation [7]?
The activity change, positive = activation was inconclusive: 18.5% [at 42.5 µM].

And the Potency [8]?
Its Potency is inconclusive: 62.4 µM [phenotype inactive, partial curve, poor fit].

And the Potency [9]?
Its Potency is inconclusive: 35.1 µM [activator, partial curve, poor fit].

And the Potency [10]?
The Potency was “inactive”.

What does the source list for `CC(C)=CCC[C@](C)(O)[C@@H]1CC=C(C)CC1`?
Potency [11]: inconclusive: 89.8 µM [cytotoxic, partial curve, poor fit]; Potency [10]: inconclusive: 49 µM [activator, single point]

With `C1COCCN1` as the molecule, how does the Potency [11] read?
The Potency was “inactive”.

What about the Potency [10] of the same molecule?
Its Potency is inconclusive: 54.9 µM [activator, single point].

What does the source list for `CC(C)(C)c1ccccc1`?
Potency [1]: inactive; Potency [3]: inactive; Potency [6]: inactive

For `CS(=O)(=O)Nc1ccc([N+](=O)[O-])cc1Oc1ccccc1`, which Potency [1] is on record?
Its Potency is inconclusive: 26.6 µM [inhibitor, partial curve].

What about the Potency [4] of the same molecule?
The Potency was “inactive”.

With `O=c1[nH]cnc2c1ncn2[C@H]1CC[C@@H](CO)O1` as the molecule, how does the Potency [1] read?
The Potency was “inactive”.

And the Potency [12]?
The Potency was inconclusive: 26.8 µM [activator, single point].

And the Potency [3]?
The Potency was inconclusive: 26.8 µM [activator, single point].

And the Potency [13]?
Its Potency is inconclusive: 66.3 µM [activator, single point] and inconclusive: 26.8 µM [activator, single point].

And the Potency [14]?
The Potency was “inactive”.

And the Potency [10]?
The Potency was inconclusive: 26.8 µM [activator, single point].

For `CC(=O)c1ccc(OCC(=O)N2CCCCC2)cc1`, which activity change, positive = activation [7] is on record?
Its activity change, positive = activation is inconclusive: 16.9% [at 42.5 µM].

For `CNCc1ccc(NC(=O)c2c[nH]c3c2C(=O)CCC3)cc1`, which Potency [1] is on record?
Its Potency is “inactive”.

And the Potency [2]?
Its Potency is inconclusive: 43.6 µM [cytotoxic, partial curve, poor fit].

And the Potency [4]?
The Potency was inconclusive: 43.6 µM [cytotoxic, single point].

What about the Potency [5] of the same molecule?
The Potency was inconclusive: 49 µM [cytotoxic, partial curve, poor fit].

Which results are given for `COc1ccc(/C=C/C(=O)c2ccc(OC)cc2OC)cc1`?
Potency [1]: inconclusive: 33.5 µM [inhibitor, single point]; Potency [9]: inconclusive: 7.56 µM [activator, single point]; Potency [6]: inconclusive: 8.49 µM [activator, single point]

For `O=[N+]([O-])c1ccc2ncccc2c1`, which Potency [1] is on record?
The Potency was inconclusive: 43.4 µM [inhibitor, partial curve, poor fit].

And the Potency [8]?
Its Potency is “inactive”.

For `C[N+]1(C)CCC(=C(c2ccccc2)c2ccccc2)CC1`, which Potency [1] is on record?
The Potency was “inactive”.

And the Potency [15]?
Its Potency is “inactive”.

Which Potency [1] does the source give for `CC1=C(/C=C/C(C)=C/C=C/C(C)=C/CO)C(C)(C)CCC1` here?
The Potency was inconclusive: 45.6 µM [inhibitor, partial curve].

And the Potency [3]?
The Potency was inconclusive: 55.6 µM [activator, single point] and inconclusive: 51.6 µM [activator, single point].

What about the Potency [6] of the same molecule?
The Potency was inconclusive: 57.9 µM [activator, single point].

With `O=C(c1ccc(F)cc1)C1CCN(CCn2c(=O)[nH]c3ccccc3c2=O)CC1` as the molecule, how does the Potency [1] read?
The Potency was inconclusive: 26.6 µM [inhibitor, partial curve].

And the Potency [6]?
Its Potency is inconclusive: 16.9 µM [activator, partial curve].

And the Potency [16]?
The Potency was inconclusive: 15.1 µM [activator, single point].

Which Potency [1] does the source give for `C/C=C\C/C=C/CCCCCCCCOC(C)=O` here?
Its Potency is inconclusive: 34.4 µM [inhibitor, partial curve, poor fit].

And the Potency [3]?
The Potency was inconclusive: 54.9 µM [activator, single point].

What about the Potency [10] of the same molecule?
Its Potency is “inactive”.

For `CN(C)Cc1cc(C(C)(C)C)c(O)c(C(C)(C)C)c1`, which Potency [1] is on record?
The Potency was inconclusive: 48.6 µM [inhibitor, partial curve].

What about the Potency [6] of the same molecule?
The Potency was “inactive”.

What does the source list for `CC1(C)O[C@@H]2[C@@H](CO[C@@]3(COS(N)(=O)=O)OC(C)(C)O[C@@H]23)O1`?
Potency [1]: inconclusive: 61.1 µM [inhibitor, partial curve, poor fit]; Potency [4]: inactive; Potency [5]: inconclusive: 61.6 µM [cytotoxic, single point]
